Assay results as given in the antibiotic and cytotoxicity screens of Wong et al. (2023).
The list shows a part of the results.

How the values were obtained:
HSkMC = human skeletal muscle cells; experiment: cytotoxicity call (relative viability < 0.9); conditions: 10 µM
HepG2 = experiment: cytotoxicity call (relative viability < 0.9); conditions: 10 µM
S. aureus RN4220 = experiment: growth inhibition call (relative growth <= 0.2); conditions: 50 µM

Compound | cytotoxicity call (HSkMC) | cytotoxicity call (HepG2) | growth inhibition call (S. aureus RN4220)
C[C@@H]1CCCCO[C@H](CN(C)Cc2ccc(C(=O)O)cc2)[C@@H](C)CN([C@H](C)CO)C(=O)c2cc(NC(=O)CCC(F)(F)F)ccc2O1 | inactive | inactive | inactive
Cc1ccc(S(=O)(=O)Nc2ccc3c(c2)C(=O)N([C@H](C)CO)C[C@@H](C)[C@@H](CN(C)C(=O)CCC(F)(F)F)OCCCC[C@@H](C)O3)cc1 | inactive | inactive | inactive
COc1ccc(NC(=O)Nc2ccc3c(c2)CC(=O)N([C@@H](C)CO)C[C@H](C)[C@H](CN(C)Cc2ccc(-c4ccccc4)cc2)O3)cc1 | inactive | active | inactive
O=C([C@H]1[C@H](CO)[C@H]2Cn3c(cccc3=O)[C@H]2N1CC1CCCC1)N1CCOCC1 | inactive | inactive | inactive
C[C@H](CO)N1C[C@H](C)[C@@H](CN(C)Cc2ccc(C(=O)O)cc2)Oc2ccc(NC(=O)CCCN(C)C)cc2C1=O | inactive | inactive | inactive
CC(C)(C(=O)c1cccnc1)c1cccnc1 | inactive | inactive | inactive
Cn1cnc(S(=O)(=O)N[C@@H]2C=C[C@H](CC(=O)Nc3ccccc3)O[C@@H]2CO)c1 | inactive | inactive | inactive
CCCC(CCC)C(=O)[O-].[Na+] | inactive | inactive | inactive
COc1cc2ccc(=O)oc2c(O[C@H]2O[C@@H](CO)[C@@H](O)[C@@H](O)[C@@H]2O)c1O | inactive | inactive | inactive
C[C@@H]1CN([C@H](C)CO)S(=O)(=O)c2ccc(C3=CCCC3)cc2O[C@H]1CN(C)S(=O)(=O)c1cn(C)cn1 | inactive | inactive | inactive
CC(C)NC(=O)Nc1ccc2c(c1)C(=O)N([C@@H](C)CO)C[C@@H](C)[C@H](CN(C)S(=O)(=O)c1ccccc1)O2 | inactive | inactive | inactive
COc1ccc(CN(C)C[C@@H]2Oc3ccc(NC(=O)CCN4CCOCC4)cc3C(=O)N([C@H](C)CO)C[C@H]2C)cc1 | inactive | inactive | inactive
C[C@H]1CN([C@@H](C)CO)C(=O)c2cc(-c3ccc(F)cc3)cnc2O[C@H]1CN(C)C(=O)Cc1ccccn1 | inactive | inactive | inactive
CCCN(CCC)[NH2+][O-] | inactive | inactive | inactive
C[C@@H]1CN([C@@H](C)CO)C(=O)c2cc(NC(=O)CCCN(C)C)ccc2O[C@H]1CN(C)S(=O)(=O)c1ccccc1 | inactive | inactive | inactive
CO[C@@H]1CN(C)C(=O)c2ccc(NC(=O)C3CC3)cc2OC[C@H](C)N(C(=O)Cc2ccccn2)C[C@H]1C | inactive | inactive | inactive
COc1ccc(NC(=O)N(C)C[C@H]2Oc3ccc(NC(=O)CCN4CCOCC4)cc3CC(=O)N([C@@H](C)CO)C[C@H]2C)cc1 | inactive | inactive | inactive
COc1cccc(CNc2nn[nH]n2)c1OC | inactive | inactive | inactive
COc1ccc(NC(=O)Nc2ccc3c(c2)C(=O)N([C@H](C)CO)C[C@@H](C)[C@H](CN(C)Cc2ccccc2)OCCCC[C@@H](C)O3)cc1 | inactive | active | inactive
N[C@@H]1CCCN(Cc2ccncc2)[C@H]1c1ccccc1F | inactive | inactive | inactive

Compound | cytotoxicity call (HSkMC) | cytotoxicity call (HepG2) | growth inhibition call (S. aureus RN4220)
O=c1nc[nH]c2n[nH]cc12 | inactive | inactive | inactive
O=C1OCC=C[C@H]2O[C@@]34C=CCN(c5ccc6ccccc6c5)C(=O)[C@H]3N(CCCCCO)C(=O)[C@@H]4[C@@H]12 | inactive | inactive | inactive
Cc1noc(C)c1NC(=O)Nc1ccc2c(c1)C(=O)N([C@H](C)CO)C[C@@H](C)[C@@H](CN(C)Cc1ccc(-c3ccccc3)cc1)O2 | inactive | inactive | inactive
C[C@H]1CN([C@@H](C)CO)C(=O)c2cccc(NC(=O)c3cnccn3)c2O[C@H]1CN(C)S(C)(=O)=O | inactive | inactive | inactive
C[C@H](CO)N1C[C@H](C)[C@H](CN(C)CC2CCOCC2)Oc2ncc(C#Cc3cccc(F)c3)cc2C1=O | inactive | inactive | inactive
Nc1ncnc2nc[nH]c12 | inactive | inactive | inactive
Cc1snnc1-c1ccccc1 | inactive | inactive | inactive
C[C@@H]1CCCCO[C@H](CN(C)C(=O)Nc2ccccc2)[C@@H](C)CN([C@@H](C)CO)C(=O)c2cc(NS(=O)(=O)c3ccc(F)cc3)ccc2O1 | inactive | inactive | inactive
C[C@@H]1CN([C@H](C)CO)C(=O)Cc2cc(NC(=O)CCCCCC(=O)Nc3ccccc3N)ccc2O[C@H]1CN(C)Cc1ccc(Oc2ccccc2)cc1 | inactive | inactive | inactive
CCCc1cc(C(N)=S)ccn1 | inactive | inactive | inactive
Cc1ccc(S(=O)(=O)Nc2cccc3c2O[C@@H](CN(C)Cc2ccc(Oc4ccccc4)cc2)[C@@H](C)CN([C@@H](C)CO)C3=O)cc1 | inactive | inactive | inactive
C/C=C1\[C@H](O[C@@H]2O[C@H](CO)[C@@H](O)[C@H](O)[C@H]2O)OC=C(C(=O)O)[C@H]1CC(=O)OCCc1ccc(O)cc1 | inactive | inactive | inactive
CC(C)(O)C#Cc1ccc([C@@H]2[C@@H](CO)N3CCCCN(S(C)(=O)=O)C[C@H]23)cc1 | inactive | inactive | inactive
COc1ccc(NC(=O)Nc2cccc3c2O[C@H](CN(C)C(=O)Nc2cccc4ccccc24)[C@H](C)CN([C@H](C)CO)C3=O)cc1 | inactive | active | inactive
O=C(CCCCCCC(=O)Nc1ccc([C@H]2O[C@@H](CN3CCCCCCC3)C[C@H](c3ccccc3)O2)cc1)NO | inactive | inactive | inactive
CNC[C@H]1OCCCC[C@@H](C)Oc2ccc(NC(=O)c3ccncc3)cc2C(=O)N([C@H](C)CO)C[C@@H]1C | inactive | inactive | inactive
C[C@@H]1CN([C@@H](C)CO)C(=O)CCCn2cc(nn2)CO[C@@H]1CN(C)C(=O)c1ccc(N2CCN(C)CC2)cc1 | inactive | inactive | inactive
C[C@@H]1CCCCO[C@@H](CN(C)C(=O)Nc2ccccc2)[C@H](C)CN([C@H](C)CO)C(=O)c2cc(NS(=O)(=O)c3ccc(F)cc3)ccc2O1 | inactive | active | inactive
COc1ccc2c3c([nH]c2c1)[C@@H](CO)N(C[C@]13CN(C1)S(=O)(=O)C)C(=O)C1CC1 | inactive | inactive | inactive
COc1cccc(NC(=O)N[C@@H]2CC[C@H](CC(=O)N3CCOCC3)O[C@@H]2CO)c1 | inactive | inactive | inactive

Compound | cytotoxicity call (HSkMC) | cytotoxicity call (HepG2) | growth inhibition call (S. aureus RN4220)
CC(=C/C(=O)O)/C=C/c1ccccc1 | inactive | inactive | inactive
C[N+](C)(C)CCOC(N)=O.[Cl-] | inactive | inactive | inactive
CO[C@H]1CN(C)C(=O)c2ccc(NS(=O)(=O)CC(F)(F)F)cc2OC[C@H](C)N(Cc2nccs2)C[C@H]1C | inactive | inactive | inactive
Cc1ccc(S(=O)(=O)N[C@H]2CC[C@@H](CC(=O)N3CCC(Cc4ccccc4)CC3)O[C@@H]2CO)cc1 | inactive | inactive | inactive
C[C@@H]1CCCCO[C@@H](CN(C)Cc2ccc(C(=O)O)cc2)[C@@H](C)CN([C@H](C)CO)C(=O)c2cc(NS(=O)(=O)c3ccc(Cl)cc3)ccc2O1 | inactive | inactive | inactive
CC(C)NC(=O)N(C)C[C@@H]1Oc2ccc(NC(=O)CCC(F)(F)F)cc2C(=O)N([C@H](C)CO)C[C@@H]1C | inactive | inactive | inactive
C[C@@H]1CCCCO[C@@H](CN(C)Cc2ccncc2)[C@H](C)CN([C@@H](C)CO)C(=O)c2cc(NS(=O)(=O)c3ccc(Cl)cc3)ccc2O1 | inactive | inactive | inactive
COc1ccc(CN(C)C[C@H]2Oc3ccc(NS(=O)(=O)c4cn(C)cn4)cc3C(=O)N([C@@H](C)CO)C[C@@H]2C)cc1 | inactive | inactive | inactive
O=C(CN1CCOCC1)NCC[C@H]1CC[C@H](NS(=O)(=O)c2ccc(Cl)cc2)[C@@H](CO)O1 | inactive | inactive | inactive
O=c1c(-c2ccc(O)cc2)coc2c(C3OC(CO)C(O)C(O)C3O)c(O)ccc12 (configuration not stated) | inactive | inactive | inactive
C[C@@H]1CCCCO[C@H](CN(C)CC2CCCCC2)[C@H](C)CN([C@@H](C)CO)C(=O)c2cc(NC(=O)Nc3cccc4ccccc34)ccc2O1 | active | active | inactive
C[C@@H]1CN([C@H](C)CO)C(=O)c2cc(NC(=O)NC3CCCCC3)ccc2O[C@@H](C)CCCCO[C@H]1CN(C)C(=O)NC1CCCCC1 | inactive | inactive | inactive
N#C[C@H]1N[C@@H](CO)[C@H]1c1ccccc1 | inactive | inactive | inactive
C[C@@H]1CN([C@@H](C)CO)C(=O)Cc2cc(NC(=O)Cc3cn(C)c4ccccc34)ccc2O[C@@H]1CN(C)C(=O)Nc1cccc2ccccc12 | inactive | inactive | inactive
COCCNC(=O)C[C@@H]1CC[C@@H]2[C@H](COC[C@@H](O)CN2C(=O)Nc2ccccc2OC)O1 | inactive | inactive | inactive
O=C(C[C@@H]1C[C@H]2c3cc(NC(=O)Cc4ccncc4)ccc3O[C@H]2[C@H](CO)O1)NCc1ccc2c(c1)OCO2 | inactive | inactive | inactive
COc1ccc2c(c1OCc1ccccc1)C[C@@H](C(=O)O)N(C(=O)C(c1ccccc1)c1ccccc1)C2 | inactive | inactive | inactive
C[C@@H]1CN([C@H](C)CO)C(=O)c2cc(C3=CCCC3)cnc2O[C@@H]1CN(C)C(=O)c1ccc2c(c1)OCO2 | inactive | inactive | inactive
COc1ccc(S(=O)(=O)Nc2cccc3c2O[C@H](CN(C)C(=O)Nc2c(C)noc2C)[C@H](C)CN([C@@H](C)CO)C3=O)cc1 | inactive | inactive | inactive
